In PubChem BioAssay (NCATS):
Inconclusive results, whose numbers are uncertain, are shown with a selection of clear calls. A potency beside an inconclusive call is a rough fit, not a confirmed value. For some assays here: “Side channel” marks fits to a control or component signal instead of the main read-out. Active and inactive are the calls of the source. Unless noted, calls come from the whole dose curve; as a rule, active = well fitted inhibition curve with a large enough effect; inconclusive = small, poorly fitted or top-dose-only effect; inactive = no such curve, though single readings can be large or run the other way.

system: not listed separately; assay: qHTS Assay for Identification of Small Molecule Antagonists for NFkB Signaling Pathway (AID 895; active = well fitted inhibition curve with a large enough effect in the signal ratio, with a control signal flat, not every such curve was filed as active; inconclusive = small, poorly fitted or top-dose-only effect, or effect the other way, or a change in a side signal; the % refers to the signal ratio; for activity change, negative = inhibition: % is set by controls: 0 for no effect and ±100 for the full control effect); settings: NFkB beta-lactamase reporter cells, FRET ratio 460/530; Potency: stimulated with 10 pM TNF alpha unless noted; activity change, negative = inhibition: at 38.3 µM (top of the series) unless noted
In short: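 NFkB-bla ME-180 cervical carcinoma cells with beta-lactamase reporter under NFkB response element; compounds added, then TNF alpha at 10 pM final (EC50), 5 h at 37 C. LiveBLAzer substrate 2 h, room temperature; emission 460/530 nm at 405 nm excitation.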
Potency is the fitted concentration of half-maximal effect; tags give direction and shape of the fitted curve or compound fluorescence and quenching.

| Compound | activity change, negative = inhibition | Potency |
| --- | --- | --- |
| N[C@H](CCl)C(=O)O | inconclusive: 23.3% [at 38.3 µM, stimulated with 10 pM TNF alpha] |  |
| CN1[C@@H](CC(=O)c2ccccc2)CCC[C@@H]1C[C@@H](O)c1ccccc1 |  | active: 12.6 µM |
| O[C@@H]1CCCC[C@H]1N1CCC(c2ccccc2)CC1 | inconclusive: -10.8% [at 38.3 µM, stimulated with 10 pM TNF alpha] |  |
| CN1C[C@@H](C(=O)N[C@]2(C)O[C@]3(O)[C@H]4CCCN4C(=O)[C@H](Cc4ccccc4)N3C2=O)C[C@H]2c3cccc4[nH]cc(c34)C[C@@H]21 |  | inconclusive: 1.26 µM [inhibitor, partial curve] |
| NC(=O)CN1C[C@@H](O)CC1=O | inconclusive: 5.89% |  |
| CC(C)C[C@H](NP(=O)(O)O[C@@H]1O[C@@H](C)[C@@H](O)[C@@H](O)[C@H]1O)C(=O)N[C@@H](Cc1c[nH]c2ccccc12)C(=O)O | inactive: 9.94% [at 38.3 µM, stimulated with 10 pM TNF alpha] |  |
| N[C@H](CCCP(=O)(O)O)C(=O)O |  | inconclusive: 5.01 µM [activator, single point] |

molecular target: Cytochrome P450 2C19 (Homo sapiens) (UniProt P33261); assay: qHTS Assay for Inhibitors and Substrates of Cytochrome P450 2C19 (AID 899); settings: recombinant CYP2C19, luciferin-H EGE luminescence; series mostly up to 57.1 µM; activity, negative = inhibition: at the top concentration; note: nearly all actives have a fitted effect of over 60% in size; for activity, negative = inhibition: top concentration of the series differs between compounds; % is set by controls: 0 for no effect and ±100 for the full control effect
In short: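 NADPH-dependent conversion of Luciferin-H EGE (10uM, at KM) by 5nM enzyme in 50mM KPO4, 60 min at 37C following 10 min compound preincubation. Stopped with luciferin detection buffer; luminescence read after 20 min.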

Sequence of UniProt P33261 (P33261 whole entry, looked up): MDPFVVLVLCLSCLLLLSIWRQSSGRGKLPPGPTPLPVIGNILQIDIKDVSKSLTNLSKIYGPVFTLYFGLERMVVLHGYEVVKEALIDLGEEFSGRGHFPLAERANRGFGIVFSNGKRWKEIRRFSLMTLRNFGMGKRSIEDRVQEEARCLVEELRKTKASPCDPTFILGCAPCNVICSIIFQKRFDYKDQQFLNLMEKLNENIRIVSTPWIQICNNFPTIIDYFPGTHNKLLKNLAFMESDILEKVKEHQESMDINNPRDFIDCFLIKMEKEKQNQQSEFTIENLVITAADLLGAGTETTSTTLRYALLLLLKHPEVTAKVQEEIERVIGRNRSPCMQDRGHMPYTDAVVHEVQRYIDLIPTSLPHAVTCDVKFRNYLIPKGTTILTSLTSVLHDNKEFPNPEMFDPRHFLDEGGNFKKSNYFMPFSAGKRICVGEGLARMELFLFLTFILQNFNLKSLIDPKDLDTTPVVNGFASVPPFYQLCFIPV

| Compound | activity, negative = inhibition | Potency |
| --- | --- | --- |
| C[C@@H](CO)NC(=O)[C@H]1C=C2c3cccc4[nH]cc(c34)C[C@H]2N(C)C1 | inactive: -15.7% |  |
| CC(C)CC(=O)C[C@H](O)C(Cl)(Cl)Cl |  | inconclusive: 7.94 µM [inhibitor, single point] |
| C[C@]12N[C@@H](Cc3ccccc31)c1ccccc12 |  | inconclusive: 6.31 µM [inhibitor, full curve, poor fit] |
| O=C1N[C@@]2(CN3CCC2CC3)C(=O)N1CN(Cc1ccccc1)c1ccccc1 |  | inconclusive: 1.58 µM [inhibitor, partial curve] |
| CCN1C[C@]2(C)CC[C@H](OC)[C@@]34[C@@H]2[C@H](OC(C)=O)[C@]2(OCO[C@@]25C[C@@H](OC)[C@@H]2C[C@@]3(O)[C@H]5[C@@H]2OC)[C@H]14 | inactive: 61.1% [at 25.6 µM] |  |
| COC1=CC(=O)O[C@@H](/C=C\c2ccccc2)C1 |  | inconclusive: 5.01 µM [inhibitor, partial curve, poor fit] |
| O=C(O)[C@H]1C2c3ccccc3C(c3ccccc32)[C@@H]1C(=O)NCC1CC1 |  | inconclusive: 3.98 µM [inhibitor, single point] |
| CCN1C[C@@]2(COC(=O)c3ccccc3N3C(=O)C[C@H](C)C3=O)CC[C@H](OC)[C@@]34[C@@H]5CC6[C@@H](OC)C[C@@](O)([C@H]5[C@H]6OC)C(O)([C@@H]13)[C@@H](OC)[C@H]24 | inactive: -2.31% |  |
| O=C1c2ccccc2-c2cc([N+](=O)[O-])c([N+](=O)[O-])cc21 |  | active: 0.398 µM |
| CCCc1cc2c(n1CCO)C(C)C1CN(C(=O)c3ccccc3)C(C)(C(=O)OC)C21 (stereo not drawn) |  | inconclusive: 3.16 µM [inhibitor, single point] |

system: not listed separately; assay: qHTS Assay for Identification of Small Molecule Agonists for Hypoxia Response Element Signaling Pathway (AID 914; active = well fitted activation curve with a large enough effect in the signal ratio, with a control signal flat, not every such curve was filed as active; inconclusive = small, poorly fitted or top-dose-only effect, or effect the other way, or a change in a side signal; the % refers to the signal ratio; for activation: top concentration of the series differs between compounds; % of control where 0% means no effect); settings: ME-180 (cervical carcinoma) HRE-bla reporter, beta-lactamase ratio, CoCl2, 17 h; activation: active compounds read high
In short: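 In Opti-MEM containing 0.5% dialyzed FBS and 10 mM HEPES, ME-180 HRE-bla cells received a compound titration and EC50 CoCl2. They were incubated 17 hours, then CCF4-loaded 2.5 hours at room temperature before ratio reading.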

| Compound | Potency | activation |
| --- | --- | --- |
| COC(=O)CSc1nc2sc3c(c2c(=O)n1C1CCCCC1)CCN(C)C3 | inconclusive: 12.6 µM [inhibitor, single point] |  |
| COc1ccc(C(=O)CC2C(=O)N(C)C(=O)N(C)C2=O)cc1 | inconclusive: 10 µM [activator, partial curve] |  |
| N#CS.N=C=S.N=C=S.[Cu].[NH2-].[NH2-].[NH2-].[NH2-].c1ccc2ncccc2c1 |  | inconclusive: -3.92% |
| CC(=O)OC1=CC2=CC[C@H]3[C@H]4CCC(=O)[C@@]4(C)CC(=O)[C@]3(S)[C@]2(C)CC1 |  | inactive: -4.78% |
| CN(C)CS/C(N)=N/[C@H](O)C(Cl)(Cl)Cl |  | inactive: 7.72% |
| C[C@]12CC[C@@H]3C(=CCc4cc(O)ccc43)[C@@H]1CCC2=O | inconclusive: 5.01 µM [inhibitor, partial curve] |  |
| C[C@H]1CCCC(=O)CCCCCc2cc(O)cc(O)c2C(=O)O1 |  | inconclusive: -31.5% |
| C/C(Cl)=C/CC1(CN2CCCC2=O)C(=O)NC(=O)NC1=O |  | inactive: 3.38% |
| c1csc(CN2CC[C@@]3(CCCNC3)C2)n1 |  | inactive: 9.27% |
| CC(C)n1c(/C=C\[C@@H](O)C[C@@H](O)CC(=O)O)c(-c2ccc(F)cc2)c2ccccc21 | inconclusive: 2 µM [inhibitor, full curve] |  |
| CC1CN=C(Nc2ccc(N(C)C)cc2)S1 (stereo not drawn) |  | inactive: 1.86% |
| CC1(C)NCCN2C(=O)CSC21 (stereo not drawn) | inconclusive: 6.31 µM [activator, partial curve] |  |
| N[C@H](Cc1c[nH]c2ccccc12)P(=O)(O)O |  | inconclusive: -4.49% |
| C=C1[C@@H]2CC[C@H]3[C@@]4(C)C[C@@H](O[C@@H]5O[C@H](CO)[C@H](OS(=O)(=O)O)[C@@H](OS(=O)(=O)O)[C@@H]5OC(=O)CC(C)C)C[C@@H](C(=O)O)[C@H]4CC[C@@]3(C2)[C@H]1O |  | inconclusive: -4.5% |
| COc1ccccc1-n1c(O)c(C=NCCCn2ccnc2)c(=O)[nH]c1=O |  | inconclusive: -1.45% |
| O.O.[NH-]C1(C(=O)O)CCCC1.[NH-]C1(C(=O)O)CCCC1.[Ni+2] | inconclusive: 1 µM [cytotoxic, side channel, single point] |  |
| O=[As](O)(O)c1ccc(N=Nc2ccc(O)cc2)cc1 |  | inactive: 5.33% |
| O=S(=O)(O)c1ccc(O)c2ncccc12.O=S(=O)(O)c1ccc(O)c2ncccc12.[Zn] | inconclusive: 3.98 µM [inhibitor, partial curve] |  |
| O=C(O)C(C(=O)O)P(=S)(S)c1ccccc1 (stereo not drawn) |  | inconclusive: -1.71% |
| Oc1ccc([C@H](O)[C@@H]2CCCCN2)cc1O | inconclusive: 1 µM [inhibitor, full curve] |  |
| O[C@H](CN1CC1)[C@@H](O)CN1CC1 |  | inconclusive: 5.37% |
